# Patent US20220242974A1 (QURE BIOTECHNOLOGY SHANGHAI, published 2022)
# B1: QP320 (Fc fusion)
# chain: EVQLLESGGGLVQPGGSLRLSCAASGFTYGTYAMSWVRQAPGKGLEWVSCIDIYGRASYTDPVKGRFTISRDNSKNTLYLQMNSLRAEDTAVYYCAARDFGYCTASWVHEGFSRYWGQGTLVTVSS[human IgG1 Fc with changes skipped]
# B2: QP321 (Fc fusion)
# chain: EVQLLESGGGLVQPGGSLRLSCAASGFTYGTYAMSWVRQAPGKGLEWVACIDIYGRASYTDPVKGRFTISRDNSKNTLYLQMNSLKAEDTAVYYCAARDFGYCTASWVHEGFSRYWGQGTLVTVSS[human IgG1 Fc with changes skipped]
# B3: QP1142-FC (Fc fusion)
# chain: QVQLVESGGGSVQAGGSLTLSCAVSGNTYSTNIMGWFRQAPGKEREGVAAILAGGRNTYYADSVKGRFTISQDNAKNTVYLQMNSLKPEDTAMYYCAADTRAAFWNIGPLNSDQYNIWGQGTQVTVSS[human IgG1 Fc with changes skipped]
# B4: QP1150-FC (Fc fusion)
# chain: QVQLVESGGGSVQAGGSLTLSCAVSGNTYSTKYMGWFRQAPGKEREGVAAILAGGRNTHYADSVKGRFAISQDNAKNTVYLQMNSLKPEDTAMYYCAADTRAAFWNIGPLNSDQYNIWGQGTQVTVSS[human IgG1 Fc with changes skipped]
# notes: also called OP1150-FC
# B5: QP322 (Fc fusion)
# chain: EVQLLESGGGLVQPGGSLRLSCAASGFTYGTYAMSWFRQAPGKGREGVACIDIYGRASYTDPVKGRFTISQDNSKNTLYLQMNSLKAEDTAVYYCAARDFGYCTASWVHEGFSRYWGQGTLVTVSS[human IgG1 Fc with changes skipped]
# notes: as QP320; also called 1162-V3; QD322
# B6: QP325 (Fc fusion)
# chain: EVQLLESGGGLVQPGGSLRLSCAASGFTYGTYAMSWFRQAPGKGLEGVACIDIYGRTSYTDPVKGRFTISQDNSKNTLYLQMNSLRAEDTAVYYCAARDFGYCTASWVHEGFSRYWGQGTLVTVSS[human IgG1 Fc with changes skipped]
# notes: as QP320; also called 1166-V3; QD325
# B7: QP1162-FC (Fc fusion)
# chain: QVQLVESGGGSVQSGGSLRLSCAASGFTYGTYAMSWFRQAPGKEREGVACIDIYGRASYTDPVKGRFTISQDNAKNTLYLQMNSLKPEDTAMYYCAARDFGYCTASWVHEGFSRYWGQGTQVTVSS[human IgG1 Fc with changes skipped]
# B8: QP1166-FC (Fc fusion)
# chain: QVQLVESGGDSVQPGGSLRLSCAASGFTYGTYAMSWFRQAPGKEREGVACIDIYGRTSYTDPVKGRFTISQDNAKNTLYLQMNSLKPEDTAMYYCAARDFGYCTASWVHEGFSRYWGQGTQVTVSS[human IgG1 Fc with changes skipped]
# B9: QP324 (Fc fusion)
# chain: EVQLLESGGGLVQPGGSLRLSCAASGFTYGTYAMSWVRQAPGKGLEWVACIDIYGRTSYTDPVKGRFTISQDNSKNTLYLQMNSLRAEDTAVYYCAARDFGYCTASWVHEGFSRYWGQGTLVTVSS[human IgG1 Fc with changes skipped]
# notes: as QP320; also called 1166-V2; QD324
# B10: QP1122-FC (Fc fusion)
# chain: QVQLVESGGGSVQAGGSLTLSCAVSGNTYSTNVMGWFRQAPGKEREGVAAILAGGRNTYYADSVKGRFTISQDNAKNTVYLQMNSLKPEDTAMYYCAADTRAAFWNIGPLNSDQYNIWGQGTQVTVSS[human IgG1 Fc with changes skipped]
# B11: QP1126-FC (Fc fusion)
# chain: QVQLVESGGGSVQAGGSLTLSCAVSGNTYSTKYMSWFRQAPGKEREGVAAILAGGRNTYYADSVKGRFTISQDNAKNTVYLRMNSLKPEDTAMYYCAADTRAALWYIGPLNSDQYNTWGQGTQVTVSS[human IgG1 Fc with changes skipped]
# How the values were obtained:
# biotin-PDL1-FC [1] = biological target: T1, biotin-PDL1-FC (human, UniProt Q9NZQ7 partial chain, limits assumed, biotinylated); test: ELISA, antibody coated, biotin-PDL1-FC titrated, HRP-streptavidin
# T1 construct: also called biotinylated human PDL1 protein
# biotin-PDL1-FC [2] = biological target: T1, biotin-PDL1-FC; test: blocking ELISA, PD1-FC (QP1138) coated, biotin-PDL1-FC 2 ug/ml, HRP-streptavidin
# mPDL1-Biotin = biological target: T2, mPDL1-Biotin (mouse, UniProt Q9EP73 partial chain, limits assumed, biotinylated); test: ELISA: mPDL1-Biotin 1 ug/ml captured on a streptavidin plate, test antibody titrated, HRP-anti-hFc, OD450
# T2 construct: also called biotinylated mouse PD-L1 protein; Mouse PDL1
# [3] = biological target: T3, QPP09.1: PD-L1 Protein, Human, Recombinant (His Tag) (human, UniProt Q9NZQ7 partial chain); test: SPR, Biacore T200, 1:1 binding, antibody captured
# T3 construct: also called human PD-L1; SinoBiologic 10084-H08H
# [4] = biological target: T4, QPP10.1: PD-L1 Protein, Cynomolgus, Recombinant (His Tag) (cynomolgus, UniProt G7PSE7 19-238); test: SPR, Biacore T200, 1:1 binding, antibody captured
# T4 construct: also called cynoPD-L1; SinoBiologic 90251-C08H
# T4 sequence (G7PSE7 entry or part of it limits assumed): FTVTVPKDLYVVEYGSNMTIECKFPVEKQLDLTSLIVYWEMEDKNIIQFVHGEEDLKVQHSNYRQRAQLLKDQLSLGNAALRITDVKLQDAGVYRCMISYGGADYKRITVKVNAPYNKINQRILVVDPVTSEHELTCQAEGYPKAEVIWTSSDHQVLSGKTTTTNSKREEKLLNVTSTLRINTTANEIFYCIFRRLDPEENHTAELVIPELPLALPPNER
# T1 sequence (Q9NZQ7 19-238 limits assumed): as the sequence (G7PSE7 entry or part of it limits assumed) above, with T33A, S34A, N62S, Q68R, R82Q, L173F, A185T, I192T, L215H counted along it
# Sequence of mPDL1-Biotin (Q9EP73 19-239 limits assumed): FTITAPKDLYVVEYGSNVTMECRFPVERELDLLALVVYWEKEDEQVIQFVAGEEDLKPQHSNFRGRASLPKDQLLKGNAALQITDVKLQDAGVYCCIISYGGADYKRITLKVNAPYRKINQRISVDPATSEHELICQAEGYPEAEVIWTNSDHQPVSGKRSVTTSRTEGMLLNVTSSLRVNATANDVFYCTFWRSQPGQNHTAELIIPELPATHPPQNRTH
Binder,OD at 0.0007 ug/ml biotin-PDL1-FC (biotin-PDL1-FC [1]),OD at 0.0021 ug/ml biotin-PDL1-FC (biotin-PDL1-FC [1]),OD at 0.0062 ug/ml biotin-PDL1-FC (biotin-PDL1-FC [1]),OD at 0.0185 ug/ml biotin-PDL1-FC (biotin-PDL1-FC [1]),OD at 0.0556 ug/ml biotin-PDL1-FC (biotin-PDL1-FC [1]),OD at 0.1667 ug/ml biotin-PDL1-FC (biotin-PDL1-FC [1]),OD at 0.5000 ug/ml biotin-PDL1-FC (biotin-PDL1-FC [1]),OD at 2.0000 ug/ml biotin-PDL1-FC (biotin-PDL1-FC [1]),OD at 0.0457 nM antibody (biotin-PDL1-FC [2]),OD at 0.1372 nM antibody (biotin-PDL1-FC [2]),OD at 1.2346 nM antibody (biotin-PDL1-FC [2]),OD at 3.7037 nM antibody (biotin-PDL1-FC [2]),OD at 11.1111 nM antibody (biotin-PDL1-FC [2]),OD at 33.3333 nM antibody (biotin-PDL1-FC [2]),OD at 100.0000 nM antibody (biotin-PDL1-FC [2]),Kd [3] [nM],koff [3] [s⁻¹],Kd [4] [nM],koff [4] [s⁻¹],kon [4] [M⁻¹ s⁻¹],other results
B1,0.125,0.114,0.108,0.0792,0.0843,0.0957,0.142,0.23,1.21,1.3,1.08,1.11,1.12,1.02,0.793,,,,,,OD at 0.4115 nM antibody (biotin-PDL1-FC [2]): 1.47
B2,0.156,0.156,0.12,0.096,0.0756,0.0836,0.138,0.225,1.37,1.14,1.1,1.01,0.997,1.07,0.977,,,,,,
B3,,,,,,,,,,,,,,,,,,,,,binding result (mPDL1-Biotin): no binding
B4,,,,,,,,,,,,,,,,,,,,,binding result (mPDL1-Biotin): no binding
B5,0.176,0.411,1.27,2.07,2.7,2.78,2.79,3,1.21,1.11,0.969,0.914,0.484,0.28,0.203,2.37,0.00311,5.39,0.00354,657000,kon [3]: 1.31e+06 M⁻¹ s⁻¹; OD at 0.4115 nM antibody (biotin-PDL1-FC [2]): 1.27
B6,0.182,0.598,1.32,2.12,2.78,3.11,3.21,3.42,1.08,1.02,0.995,1.03,0.513,0.238,0.156,10.7,0.004,19.6,0.00416,212000,kon [3]: 375000 M⁻¹ s⁻¹; OD at 0.4115 nM antibody (biotin-PDL1-FC [2]): 0.975
B7,,,,,,,,,,,,,,,,2.77,0.00379,5.6,0.00401,715000,kon [3]: 1.37e+06 M⁻¹ s⁻¹
B8,0.217,0.56,1.55,2.57,3.23,3.13,3.28,3.41,1.16,1.24,1.13,1.06,0.508,0.239,0.167,2.63,0.00255,5.6,0.00266,475000,kon [3]: 968000 M⁻¹ s⁻¹; OD at 0.4115 nM antibody (biotin-PDL1-FC [2]): 1.06
B9,0.192,0.141,0.15,0.107,0.0882,0.129,0.201,0.413,1.29,1.06,0.879,0.895,0.753,0.737,0.661,,,,,,OD at 0.4115 nM antibody (biotin-PDL1-FC [2]): 0.901
B10,,,,,,,,,,,,,,,,3.26,0.0389,6.55,0.0304,4.64e+06,kon [3]: 1.19e+07 M⁻¹ s⁻¹
B11,,,,,,,,,,,,,,,,3.1,5.69,7.87,7.43,9.44e+08,
